Measurements: article PMC2805635
These are yes or no findings as the source states them, for the method shown. For some assays here: Binding seen in cells or lysates may run through a third protein. Some entries that bind do so weakly or less than the wild type.

Assays:
[1] = molecular target: Gal4 DNA binding domain fused to the entire EBNA3C ORF (aa1-992), pAS1-EBNA3C (1-992) (Epstein-Barr virus) (UniProt P03204); experiment: two-hybrid
[2] = molecular target: pAS EBNA3C aa365-545 (Epstein-Barr virus) (UniProt P03204); experiment: two-hybrid
psg5-Flag-Gadd34 180-674 = psg5-Flag-Gadd34 180-674 (UniProt O75807); experiment: co-IP
psg5-Flag-Gadd34 180-483 = psg5-Flag-Gadd34 180-483 (UniProt O75807); experiment: co-IP
psg5-Flag-Gadd34 180-610 = psg5-Flag-Gadd34 180-610 (UniProt O75807); experiment: co-IP
[3] = molecular target: Flag-tagged full length Gadd34 (psg5-Flag-Gadd34 1-674) (UniProt O75807); experiment: co-IP
[4] = molecular target: PP1a (catalytic subunit of protein phosphatase PP1) captured on microcystin sepharose (human (endogenous in BJAB)) (UniProt P62136); experiment: pull-down

Substance | binding [1] | binding [2] | further results
full length RBP-J-Kappa, cloned into pACT (from UniProt Q06330 1-500) | binds | no binding | –
EBNA3C expressed from psg5-EBNA3C (from UniProt P03204 11-992) | – | – | binding (psg5-Flag-Gadd34 180-674): binds; binding (psg5-Flag-Gadd34 180-483): no binding; binding (psg5-Flag-Gadd34 180-610): binds; binding [3]: binds
SUMO-3 (from UniProt P55854 1-103) | binds | binds | –
Gadd34 of BJAB cells (from UniProt O75807 1-674) | – | – | binding [4]: binds
pACT-Gadd34 aa395-674 (from UniProt O75807 395-674) (domain or fragment) | binds | binds | –
